Measured values as given in the supplement of paper PMC10300432.
Recombinant human monoclonal antibodies (heavy:light variable regions). ELISA EC50 on the named antigen, from 10 µg/ml down; IC50 against spike pseudovirus on HT1080-ACE2 cells, 48 h; lower = stronger. Calls: IC50 above 1,000 ng/ml = non-neutralizing; EC50 above 1,000 ng/ml = non-binder.

B1: C5226 (protein)
chain 1: EVQLVESGGGLIQPGGSLRLSCAASGLTVSSNYMSWVRQAPGKGLEWVSVFYPGGTTYYADSVKGRFTISRDNSKNTLYLQMNSLRAEDTAVYYCARGAGHYYGMDVWGQGTTVTVSS
chain 2: DIQLTQSPSLLSASVGDRVTVTCRASQGISNYLAWYQQKPGKAPKLLIYAASTLQSGVPSRFSGSGAGTEFTLTISRLQPEDFGTYYCQQLNSYPKLTFGGGTKVEIK
B2: C5225 (protein)
chain 1: QVQLVQSGAEVKKPGSSVKVSCKASGGTFSRYAFSWVRQAPGQGLEWMGGIIPVFGTTNYAQKFQGRVIITADKSTSTAYMELSSLRSEDTAVYYCARDRQIQPNNYYHSGMDVWGQGTTVTVSS
chain 2: DIQMTQSPSSLSASVGDRVTITCQASQDITNSLNWYQQKPGRAPKLLIYDASNLDTGVPSRFSGSGSGTDFTFTISSLQPEDIATYYCQQYENLPTFGPGTKVDIK
B3: C5167 (protein)
chain 1: QVQLVQSGAEVKKPGSSVTVSCKASGGTFSIYAISWVRQAPGQGFEWMGGIIPMSGTAHYAQRFQGRVTITADESTTTAYMEVSSLRSDDTAVYFCARDMRYYYDSSGYSNYFDYWGQGTLVTVSS
chain 2: DIQMTQSPSSLSASVGDRVTITCRASQGISIYLNWYQQKPGIAPKLLIYGASNLQSGVPSRFSGSGSGTDFALTISSLQPEDFATYYCQQSYSMRTFGGGTKVEIK
B4: C5168 (protein)
chain 1: QVQLVQSGPEVKKPGSSVKVSCKASGGTFRDHALSWVRQAPGQGLEWMGKIIPVFNAVNYEQKFQGRVTISADKSTSTVYMELSSLKFDDTAVYFCARSPAPHIAIEEWFDPWGQGTLVTVSS
chain 2: QSVLTQPPSVSGAPGQRVTISCTGSSSNIGAGYDVHWYQQLPGTAPKLLIYGNNNRPSGVPDRFSGSKSGTSASLAISGLQAEDEADYYCQSYDSSVSVFYVFGTGTKVTV
B5: C5228 (protein)
chain 1: QLQLQESGPGLVKPSETLSLICTVSGGSISSSSNYWGWIRQPPGKGPEWIGTIYNRETTYYNPSLKTRLTISVDTSKNQFSLKMSSVTAADTAVYYCANIVGAAFHWGQGTLVTVSS
chain 2: DIQMTQSPSSLSASVGDRVTITCRASQSIGKYLNWYQQKPGKAPNLLIYTASSLQSGVPSRFSGSGSGTEFTLTISSLQAEDFATYYCQQTYSMPEVTFGPGTKVDIK
B6: C5231 (protein)
chain 1: QVQLVQSGAEVKKPGSSVKVSCKTSGHTFSRYAINWVRQAPGQGLEWMGWIIPISGITNYAQSFQGRVTITADESTNTAFMELRGLRSEDTAMYYCARTLYHYDRSGYQRTDDAFDIWGQGTMVTVSS
chain 2: QSVLTQPPSVSGAPGQRVTISCSGSSSNFGASYDVHWYQQLPGTAPKLLIYGNSNRPSGVPDRFSGSKSGTSASLAITGLQPEDEADYYCQSYDNSLVIFGGGTKLTV
B7: C5227 (protein)
chain 1: EVQLVESGGGLIQPGRSLRLSCAASGFTFDDYAIHWVRQAPGKGLEWVSGISANGGIIGYADSVKGRFTISRDNAKNSLHLQMNRLRAEDTAFYYCAKDHRTYYDVLTGFYVWKGFFDYWGQGTLVTVSS
chain 2: DIQMTQSPSSLSASVGDRVTITCRASQGISNSLAWYQQKPGKAPRLLLYAASTLESGVPSRFSGSGSGTDFTLTISSLQPEDFATYYCQQYYSSLLFTFGP
B8: C5234 (protein)
chain 1: EVQLVQSGAEVKKPGESLKISCEGSGFTFTNYWIGWVRQMPGKGLEWMGIIYPDDSDTTYSPSFEGQVTISADKSISTAYLQWSSLKASDTAMYYCARLLHGYSYGIIDFWGQGTLVTVSS
chain 2: NFMLTQPHSVSESPGKTVTISCTGSGGSIASNYVQWYQQRPGSAPTNVIYEDNQRPSGVPGRFSGSIDSSSNSASLTISGLKTEDEADYYCQSYDVGNYVVFGGGTKLTVL
B9: C5166 (protein)
chain 1: QVQLVQSGAEVKKPGASVKVSCKASGYTFMNYYIHWVRQAPGQGLEWMGIINPTGGGTTYAQKFQGRVTMTRDTSTSTVILELSMLTSEDTAVYYCARDGIVTTGGEYYYYYGMDVWGQGTTVTVSS
chain 2: QSALTQPASVSGSPGQSITISCTGTSSDVGGSKYVSWYQQHPGKAPKLMIYEVSHRPSGISHRVSGSKSGNTASLTISGLQAEDEGDYYCSSYTTTSTWEFGGGTKLTVL
B10: C5038 (protein)
chain 1: EVQLLESGGGLVQPGGSLRLSCAASGFTFKMFAVSWVRQAPGKGLEWVSTITGPVINTFYADSVKGRFTISRDNSKNTLYLQMDSLRADDTALYYCAKDREDQSIVPNAPFDSWGQGTLVTVSS
chain 2: QSALTQPASVSGGPGQSITISCTGTSSDIGDYNYVSWYQQHPGKAPKLIIFDVSNRPSGVSHRFSGSKSGNTASLTISGLQADDEADYYCSSYTSSSSLAFGTGTTVTVL
B11: C5163 (protein)
chain 1: QVQLVQSGAEVKKPGASVKVSCKASGYTFTSYHIDWVRQATGQGLEWMGWMNPVSGNTGYAQKFQGRLTMTRDTSITTAYMELSGLRSDDTAMYFCARGPLWYDTSGRAFHIWGQGTMVTVSS
chain 2: QSALTQPASVSGSPGQSITISCTGTSSDIGNYNYVSWYQQHPGKAPRLIIFDVSDRPSGVSHRFSGSKSGNTASLTISGLQTEDEADYYCASYTTSSTLLFGGGTKLTVL
B12: C5232 (protein)
chain 1: QVQLQESGPGRVKPSQTLSLTCTVSDGSITSGAYYWSWIRQHPGKGLEWIGFIYNSGSDYNPSLKSRVTISVDTSKNQYSMKLNSVTAADTAVYFCARSAWRRGEFQHWGQGTLVTVSS
chain 2: DIQMTQSPSSLSASVGDRITITCRASQNIINYLNWYQQKPGKAPKLLIFTASSLQSGVPSRFSGSGSGTDFTLTISSLQPEDFATYYCQQSYVTPQVTF
B13: C5233 (protein)
chain 1: QVQLVESGGGVVQPGRSLRLSCAASGFNFNNYDMHWVRQAPGRGPEWVALISDDGRGAFYADSVKGRFTISRDNSRNTLYLQMNSLRAEDTAVYFCARDSDTTVVPVFDYWGQGTLVTVSS
chain 2: DIVMTQSPDSLAASLGERATINCKSSQSVLYSSNNKNYLAWYQQKPGQPPKLLIYWASTRESGVPDRFSGSGSGTDFTLTISSLQADDVAVYYCQQYYINPYTFGQGTKLEIK
B14: C5230 (protein)
chain 1: EVQLVESGGGLIQPGGSLRLSCAASGLIVSSNYMNWVRQAPGKGLEWISVIYSGGSTFYADSVKGRFTISRDNSKNTLYLQMKSLRVEDTAVYYCARLGSYGRDGYDVWGQGTLVTVSS
chain 2: SYELTQPPSVSVAPGQTARITCGGNNFGNKSVHWYQQRPGQAPVLVVYDDSDRPSGIPERFSGSKSGNTATLTISRVEAGDEADYYCQVWDSSNDRGVFGTGTKVTVL
B15: C5229 (protein)
chain 1: EVQLVESGGGLVQPGGSLRLSCAASGFTFRNYDMHWVRQTTGKRLEWVSVIGTAGDTYYSDSVKGRFTISRENAKNSLYLHMTSLRAGDTAVYYCARGATMTTVAFDIWGQGTMVTVSS
chain 2: DIQMTQSPSSLSASVGDRVTISCQASQDISNYLNWYQQKPGKAPKLLISDASNLETGVPSRFSGRGSGTDFTFTISSLQPEDIATYYCLQYDNLPITFGQGTRLEIK

Key:
[1] = target: SARS-CoV-2 Omicron BA.1 spike pseudovirus; assay: pseudovirus neutralization IC50; higher = weaker neutralization
Protocol: (§1)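 Single-round luciferase reporter pseudovirus mixed with antibody dilutions and put on HT1080-ACE2 clone 14 cells for 48 h; signal relative to no-antibody wells, four-parameter fit.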

[2] = target: SARS-CoV-2 Omicron BA.4/5 spike pseudovirus; assay: as above
Protocol: as §1

[3] = target: SARS-CoV-2 Wuhan-Hu-1 spike pseudovirus; assay: as above
Protocol: as §1

[4] = target: SARS-CoV-2 Wuhan-Hu-1 spike receptor-binding domain; assay: ELISA binding EC50; higher = weaker binding; ELISA of recombinant human antibody on coated antigen, from 10 µg/ml in fourfold dilutions; four-parameter fit.

| Binder | pseudovirus neutralization IC50 [1] [ng/mL] | pseudovirus neutralization IC50 [2] [ng/mL] | pseudovirus neutralization IC50 [3] [ng/mL] | ELISA binding EC50 [4] [ng/mL] |
| --- | --- | --- | --- | --- |
| B1 | > 1000 | > 1000 | 14.9 | 6.72 |
| B2 | 3.89 | > 1000 | 2.89 | 3.29 |
| B3 | 1.57 | > 1000 | 0.713 | 3.38 |
| B4 | 1.65 | > 1000 | 0.332 | 3.7 |
| B5 | 1.79 | 3.53 | 2.07 | 2.97 |
| B6 | 127 | > 1000 | 86.6 | 6.05 |
| B7 | 44.1 | > 1000 | 11.3 | 3.54 |
| B8 | > 1000 | > 1000 | > 1000 | 7.31 |
| B9 | 22.6 | > 1000 | 20.8 | 4.47 |
| B10 | 25.7 | > 1000 | 16.5 | 3.17 |
| B11 | > 1000 | > 1000 | 0.4 | 3.81 |
| B12 | > 1000 | 855 | 42.8 | 5.21 |
| B13 | > 1000 | 985 | 637 | 3.06 |
| B14 | > 1000 | 3.67 | 4.53 | 4.49 |
| B15 | > 1000 | > 1000 | > 1000 | 2.82 |
